Measurements as given in paper PMC6919601, “Identification of Plasmodium dipeptidyl aminopeptidase allosteric inhibitors by high throughput screening” (PLoS ONE, 2019).
In all, about 110,000 compounds went through this assay and about 230 (0.21%) showed an effect of 50% or more. The list shows a part of the results.

What follows are molecules tested against DPAP1 (Plasmodium falciparum, UniProt Q8IIJ9) (assay: primary screen, percent inhibition; read by cleavage of a fluorogenic dipeptide substrate; higher = more effect of the substance).
DPAP1, sequence (Q8IIJ9 whole entry, looked up): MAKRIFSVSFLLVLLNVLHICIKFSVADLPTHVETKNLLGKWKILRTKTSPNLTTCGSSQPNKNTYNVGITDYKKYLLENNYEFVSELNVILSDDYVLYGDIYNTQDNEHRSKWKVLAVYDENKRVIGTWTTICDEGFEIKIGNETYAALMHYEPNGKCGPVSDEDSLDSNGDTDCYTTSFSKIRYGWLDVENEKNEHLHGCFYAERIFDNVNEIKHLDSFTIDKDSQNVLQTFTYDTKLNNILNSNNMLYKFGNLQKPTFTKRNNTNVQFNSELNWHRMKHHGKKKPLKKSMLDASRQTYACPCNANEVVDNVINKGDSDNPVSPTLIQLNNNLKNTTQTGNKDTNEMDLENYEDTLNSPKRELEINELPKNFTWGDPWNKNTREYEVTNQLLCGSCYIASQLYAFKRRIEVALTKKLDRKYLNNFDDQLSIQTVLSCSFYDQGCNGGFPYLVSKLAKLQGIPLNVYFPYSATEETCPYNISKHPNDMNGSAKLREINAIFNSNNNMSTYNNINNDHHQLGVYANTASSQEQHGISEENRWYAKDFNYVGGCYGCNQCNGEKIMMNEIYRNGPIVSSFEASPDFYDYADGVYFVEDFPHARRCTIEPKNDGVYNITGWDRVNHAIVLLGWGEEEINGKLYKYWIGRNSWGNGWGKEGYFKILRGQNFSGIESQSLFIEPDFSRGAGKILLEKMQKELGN
Parameters: species or system P. falciparum D10 trophozoite lysates; single well
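Further: 30 min substrate incubation versus DMSO and 10 µM JCP410 controls.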

SMILES | % Inhibition @ 10 uM [%]
Cc1ccccc1C(=O)N1CCN(C2=C(Cl)C(=O)c3ccccc3C2=O)CC1 | 1.84
CC(=O)NC1=C(Cl)C(=O)c2ccccc2C1=O | 0.974
CSc1nc2sc3c(c2c(=O)n1Cc1ccccc1)CCC3 | 4.57
Cn1c(=O)c2c(-c3ccccc3Cl)n(CC3CCCO3)cc2n(C)c1=O (centres unmarked) | -1.35
O=C(Nc1cccnc1)c1ccc(-c2ccccc2)cc1 | -4.66
Cc1ccccc1Cn1c(C)c(CNCCc2c[nH]c3ccccc23)c(C(=O)O)c1C | 8.86
N#Cc1c(NC(=O)c2ccco2)sc2c1CCCCC2 | -2.51
Cc1cc(C)c(S(=O)(=O)Nc2cccc(C(F)(F)F)c2)c(C)c1 | -3.48
COc1ccc(CN2CCN(Cc3cccnc3)CC2)cc1OC | -8.23
CCCNC(=O)C1C2C=CC3(CN(Cc4ccccc4Cl)C(=O)C13)O2 (centres unmarked) | -6.4
CC(C)(C)C1CCC(NCCN2CCCCC2)CC1 (centres unmarked) | -5.9
O=CN1CCN(Cc2ccc(F)c(Br)c2)CC1 | -3.6
CCCCSc1nc(O)cc(=O)n1CC | -0.833
COc1ccc(/C=C(/NC(=O)c2ccc(Cl)cc2Cl)C(=O)N2CC(C)OC(C)C2)cc1 (centres unmarked) | -1.06
CCOC(=O)C1=C(C)N=c2s/c(=C\c3ccccc3F)c(=O)n2C1c1ccc(Cl)cc1 (centres unmarked) | -1.5
O=[N+]([O-])c1cccc2cc(F)c(F)cc12 | 2.62
COc1ccc(OC)c(C2C3C(=NN2C(C)=O)C2CCN3CC2)c1 (centres unmarked) | 2.57
COc1cccc(S(=O)(=O)NCC(=O)N2CCCC2)c1 | -3.37
CCN(CC)S(=O)(=O)c1nnc(NC(=O)c2ccc(F)cc2)s1 | 3.3
Cc1ccc(NC(=O)COc2ccc(Br)cc2Br)cc1 | 1.33
N#CC1=C(SCc2ccccc2)SC(CO)NC1=O (centres unmarked) | -1.72
Fc1ccc(CNc2nc3ccccc3c3nc(-c4ccccc4)nn23)cc1 | -6.07
O=[N+]([O-])c1ccc(CN2CCN(Cc3ccccc3)CC2)cc1 | 1.63
Cc1oc(-c2ccc(Cl)cc2)nc1CSc1nncn2c1cc1occc12 | -4.99
CC(C)OCCCNC(=O)CN1C(=O)C(c2ccccc2)Oc2cccnc21 (centres unmarked) | -2.68
Cc1ccc(C(=O)Nc2ccc(S(=O)(=O)N3CCC(C)CC3)cc2)cc1C | 3.17

SMILES | % Inhibition @ 10 uM [%]
COc1cccc(NC(=O)c2sc3ccccc3c2Cl)c1OC | -3.46
N#CC12C(N)=NC3(OCCO3)C1(C#N)C2c1ccc(Cl)cc1 (centres unmarked) | -1.33
Cc1ccc(CNC(=O)CSCc2ccccc2)cc1 | 3.05
Cc1ccc(C(=O)NCCCNC(=O)c2ccc(C)cc2)cc1 | 3.21
CCOC(=O)C1=CN(Cc2ccc(F)cc2)C=C(C(=O)OCC)C1c1cccc(O)c1 | -1.48
COc1ccc(OCC(NC(=O)Cn2ncc3ccccc3c2=O)C(C)C)cc1 (centres unmarked) | -2.84
COc1ccc(-c2nnc3c4ccccc4c(C)nn23)cc1S(=O)(=O)NCCN1CCOCC1 | -3.64
Cc1cn(-c2nc(-c3ccccc3)oc2-c2ccccc2)c(=O)nc1N1CCCCC1 | 4.42
O=C(O)c1cn(C2CC2)c2c(F)c(N3CCSCC3)c(F)cc2c1=O | -5.58
CC(C)(C)NC(=O)C1C(=O)NC2(C)CC1c1ccccc1O2 (centres unmarked) | -7.9
CCCCOc1ccccc1/C=c1\sc2nc(-c3ccco3)nn2c1=O | -5.51
O=C(NCc1ccccc1Cl)C1CCC(CNc2c(N3CCCC3)c(=O)c2=O)CC1 (centres unmarked) | 7.38
CCc1ccc(OC(C)C(=O)N(Cc2ccco2)C2CCS(=O)(=O)C2)cc1 (centres unmarked) | 5.29
CC(=O)/C=C/c1cn(C)c2ccccc12 | -1.56
COc1cccc(C2CC(c3ccc(OC(F)F)cc3)n3ncnc3N2)c1 (centres unmarked) | 0.0842
CCCOc1ncnc2sc3c(c12)CCCC3 | -4.69
NC1=NC(c2ccc(Br)s2)n2c(nc3ccccc32)N1 (centres unmarked) | -3.53
COc1ccccc1C(=O)N1CCc2ccccc21 | 2.25
CC1=CN(CCO)/C(=C/c2sc3ccc4ccccc4c3[n+]2CCCS(=O)(=O)O)S1 | -1.72
CC(C)(C)N(Cc1ccccc1)C(=O)c1ccco1 | 4.93
COc1ccc(S(=O)(=O)N(C)Cc2ccccc2)cc1OC | 1.26
O=C(CSCc1ccccc1Cl)NC1CC2CCC1C2 (centres unmarked) | 1.82
O=C(/C=C/c1ccccc1)OCC(=O)c1ccc(-n2nncc2-c2ccco2)cc1 | 4.51
COc1ccc(CCN2C(=O)NC(NS(=O)(=O)c3ccccc3)(C(F)(F)F)C2=O)cc1OC (centres unmarked) | -1.52
CCN(CC)c1ccc(C2C3=C(O)CC(c4ccco4)CC3=Nc3ccccc3N2C(C)=O)cc1 (centres unmarked) | 4.08
c1ccc(-c2nnn(C34CC5CC(CC(C5)C3)C4)n2)cc1 | -0.546

SMILES | % Inhibition @ 10 uM [%]
O=C(O)C1CC=CCC1C(=O)Nc1ccccc1C(=O)N1CCN(c2ccc(Cl)cc2)CC1 (centres unmarked) | -3.43
Nc1c(C(=O)Nc2ccc(Br)cn2)sc2nc3c(cc12)CCCCCC3 | -2.14
Nc1ncnc2c1ncn2C1OC2COP(=O)(O)OC2C1O (centres unmarked) | -6.78
Cc1ccccc1OCCCn1c(CO)nc2ccccc21 | 2.69
Cn1c2c(c(=O)[nH]c1=O)C(c1ccc(OCc3ccccc3)cc1)C1=C(O)c3ccccc3C1=N2 (centres unmarked) | 1.16
Cc1ccsc1CCNC(=O)C1CCC(CNc2c(N3CCC(C)CC3)c(=O)c2=O)CC1 (centres unmarked) | -0.447
C/C(=N\OCc1nc2c3c4c(sc3ncn2n1)CCCCC4)c1ccc(Br)cc1 | -1.6
CCC(C)NC(=O)c1cnn2c(C(F)(F)F)cc(-c3cccs3)nc12 (centres unmarked) | -4.06
COc1ccccc1CNc1ncnc2c1nc1n2CCCCC1 | -0.431
Cn1c2ccccc2c2nc3cc4ccccc4cc3nc21 | -2.54
CCOCCCNC(=O)CCC(=O)n1ncc2ccccc21 | 5.23
Cn1c(S)nc2c(=O)oc3ccccc3c21 | 56.8
Cc1c2cnn(CC(=O)NCCN(C)C)c(=O)c2c(C)n1Cc1cccc(Cl)c1 | -0.447
CCOC(=O)C1=C(C)OC(N)=C(C#N)C1c1cc2c(cc1[N+](=O)[O-])OCO2 (centres unmarked) | 1.11
CC(C)c1cccc(C(C)C)c1OCCN1CCOCC1 | -0.0953
COCCCN1C(=S)NC2CC1(C)Oc1c(Cl)cccc12 (centres unmarked) | -11.8
Cc1ccc(CN(Cc2ccco2)C(=O)C(C)Oc2cc(C)c(Cl)c(C)c2)o1 (centres unmarked) | 5.43
COc1cc(/C=C2/NC(=O)N(CC(=O)Nc3cccc(C)c3)C2=O)cc(Br)c1O | -17
CC(NC(=O)C(C)(C)C)c1ccc(Br)cc1 (centres unmarked) | 0.00773
Cc1cc(C)c2nc3s/c(=C\c4ccc5c(c4)OCO5)c(=O)n3c2c1 | 1.27
Cc1ccc(S(=O)(=O)N(C)c2ccc(C(=O)NC3CCCCC3)cc2)cc1 | -14.1
Oc1nc(CSc2nnc(-c3cccnc3)n2-c2ccccc2)nc2ccccc12 | -3.74
FC(F)(F)COc1nc(N2CCOCC2)nc(N(c2ccccc2)c2ccccc2)n1 | 1.8
CNC(=O)C1CCC(=O)N1Cc1ccc(C)cc1 (centres unmarked) | 4.81
CCn1c2ccccc2c2nnc(NCc3cccnc3)nc21 | 1.68
N#CCNC(=O)C(CC1CCCCC1)C(=O)Nc1cccc2c1CCCC2 (centres unmarked) | -6.98

SMILES | % Inhibition @ 10 uM [%]
Cc1c(C#N)c(N)c(C(=O)c2ccccc2)n1-c1ccccc1 | -1.37
COc1ccc(NC(=O)c2ccccc2N(C)S(C)(=O)=O)c(OC)c1 | 3.58
CCN(Cc1ccccc1)c1nc2c(S(=O)(=O)c3cccc(Cl)c3)nnn2c2ccsc12 | 1.68
Cc1nc2c3cccnc3nn2c(C)c1CCC(=O)NC(C)CCc1ccco1 (centres unmarked) | 1.62
CC1(c2ccccc2)CC(C)(C)N(C(=O)CN2CCCCC2)c2ccccc21 (centres unmarked) | 2.05
COc1cccc2cc(C(N)=O)c(=O)oc12 | -1.37
O=C(Nc1ccccc1C(=O)Nc1nc2ccccc2[nH]1)c1ccc(Cl)cc1 | -0.641
CS(=O)(=O)N1CCCC(C(=O)NCCCN2CCOCC2)C1 (centres unmarked) | 6.86
CC1=C(C(=O)Nc2ccccc2)C(c2ccc(OCc3ccccc3)cc2)n2ncnc2N1 (centres unmarked) | 9.82
O=C(NCc1ccccc1)c1cc2c(s1)-c1ccccc1OC2 | 2.85
O=[N+]([O-])CC(Nc1ccccc1)c1ccccc1 (centres unmarked) | -4.01
CCOc1ccc(C(=O)Nc2ccc(C)cc2)cc1 | -1.63
CCOc1ccc(N2C(=O)C3CC=CCC3C2=O)cc1 (centres unmarked) | -1.54
O=C(CC(c1ccccc1)c1ccccc1)N1CCN(c2ccc(F)cc2)CC1 | 2.16
CCCCN(Cc1cc2cc(C)ccc2nc1O)S(C)(=O)=O | -0.671
CN1CCCC1CCNC1CCC(C(C)(C)C)CC1 (centres unmarked) | 3.15
COCc1cc(C)nc2sc3c(c12)NCN(Cc1ccco1)C3=O | 2.54
CC1=[N+]([O-])C(C)(C)[N+]([O-])=C1c1ccc(C)cc1 | -5.28
Clc1ccccc1Cn1c(-c2cccnc2)nc2ccccc21 | -4.75
Cc1ccc(/C=C2/CC(C)C/C(=C\c3ccc(C)o3)C2=O)o1 (centres unmarked) | 1.84
Cc1ccc(CS(=O)(=O)CCC(=O)NCCC(C)C)cc1 | -2.99
CCOc1cc(C=C2C(=O)NC(=O)NC2=O)ccc1OCc1ccc(C)cc1 | -1.1
CCOC(=O)c1ccc(-c2nnc(-c3cccc(F)c3)o2)cc1 | 2.7
